Laboratory results from the RNAGym collection of RNA variant scans (doi:10.7554/elife.90254).
Read counts are not given, so values of variants with three or more changes are uncertain.

B1: LINE1-mini (parent)
chain: GGCAGAGCUCAACACAGCGUGGCAAAGUGGCUGUGGCUAGACUGCC

Variants of: B1
Experiment: self-cleavage, relative activity (ratio to wild type); higher = more cleavage; in vitro, sequencing; the parent is a self-cleaving ribozyme

Question: Which self-cleavage does the source give for G5A U28G U34C here?
Answer: Its self-cleavage is 0.02.

Question: Which self-cleavage does the source give for G5A U28C U34A here?
Answer: Its self-cleavage is 0.05.

Question: For G5C A6G G19A G30A, which self-cleavage is on record?
Answer: The self-cleavage was 0.07.

Question: For G5C A25U G36A, which self-cleavage is on record?
Answer: Its self-cleavage is 0.04.

Question: For G5C A16G U43A, which self-cleavage is on record?
Answer: Its self-cleavage is 0.02.

Question: Which self-cleavage does the source give for G5C A25C A26U G33A here?
Answer: Its self-cleavage is 0.03.

Question: With G5C A6G A12G C13A U20G G21U as the variant, how does the self-cleavage read?
Answer: The self-cleavage was 0.04.

Question: With G5C A24G G30C G44C as the variant, how does the self-cleavage read?
Answer: Its self-cleavage is 0.02.

Question: For G5C C8A A24U G29U, which self-cleavage is on record?
Answer: The self-cleavage was 0.34.

Question: For G5A U9G G17C A24G U34C G40U C42G, which self-cleavage is on record?
Answer: Its self-cleavage is 0.24.

Question: Which self-cleavage does the source give for G5C A11C G21U here?
Answer: The self-cleavage was 0.04.

Question: Which self-cleavage does the source give for G5C C8G G29U here?
Answer: Its self-cleavage is 0.06.

Question: Which self-cleavage does the source give for G5C A6U U32C here?
Answer: The self-cleavage was 0.04.

Question: For G5C A16C G27A G44A, which self-cleavage is on record?
Answer: The self-cleavage was 0.03.

Question: With G5C A14U A25C as the variant, how does the self-cleavage read?
Answer: Its self-cleavage is 0.03.

Question: With G5C A14G A25C U32C as the variant, how does the self-cleavage read?
Answer: The self-cleavage was 0.05.

Question: With G5C A41C C42U C45A as the variant, how does the self-cleavage read?
Answer: Its self-cleavage is 0.06.

Question: For G5C C8G G30C G35C G44A, which self-cleavage is on record?
Answer: Its self-cleavage is 0.01.

Question: Which self-cleavage does the source give for G5C A25C U28G G40U here?
Answer: Its self-cleavage is 0.01.

Question: For G5C A11C G35A C42U, which self-cleavage is on record?
Answer: The self-cleavage was 0.02.

Question: Which self-cleavage does the source give for G5C C8U A14G G19U G40C here?
Answer: The self-cleavage was 0.02.

Question: With G5C A25U G33C as the variant, how does the self-cleavage read?
Answer: The self-cleavage was 0.03.

Question: With G5A U28A C31A as the variant, how does the self-cleavage read?
Answer: The self-cleavage was 0.11.

Question: Which self-cleavage does the source give for G5C A11U A16U here?
Answer: The self-cleavage was 0.04.

Question: With G5C A26G G29A G36U as the variant, how does the self-cleavage read?
Answer: The self-cleavage was 0.01.

Question: Which self-cleavage does the source give for G5C C8A A14G G29C U34A G44C here?
Answer: Its self-cleavage is 0.24.

Question: Which self-cleavage does the source give for G5C A16U G19U U20C C31G here?
Answer: The self-cleavage was 0.01.

Question: Which self-cleavage does the source give for G5C C8A C15U G19A here?
Answer: Its self-cleavage is 0.43.

Question: With G5A U9G A39U as the variant, how does the self-cleavage read?
Answer: The self-cleavage was 0.11.

Question: With G5C A6U C18U G29A U43G as the variant, how does the self-cleavage read?
Answer: Its self-cleavage is 0.02.

Question: With G5C A12C C15G A16C U38A as the variant, how does the self-cleavage read?
Answer: Its self-cleavage is 0.02.

Question: Which self-cleavage does the source give for G5C A24C U28C G40A U43G here?
Answer: Its self-cleavage is 0.05.

Question: For G5C A11C U32A, which self-cleavage is on record?
Answer: Its self-cleavage is 0.01.

Question: With G5C A16U A25G A41C G44C C46U as the variant, how does the self-cleavage read?
Answer: The self-cleavage was 0.01.

Question: With G5C A16U G17U as the variant, how does the self-cleavage read?
Answer: The self-cleavage was 0.09.

Question: Which self-cleavage does the source give for G5A U28A G35A A41U U43C here?
Answer: The self-cleavage was 0.08.

Question: Which self-cleavage does the source give for G5C A25U G36A G44C here?
Answer: Its self-cleavage is 0.08.

Question: With G5C A14C G17C G22C as the variant, how does the self-cleavage read?
Answer: The self-cleavage was 0.04.

Question: Which self-cleavage does the source give for G5A U32G A39C C45G here?
Answer: Its self-cleavage is 0.07.

Question: For G5C A6G C10G, which self-cleavage is on record?
Answer: The self-cleavage was 0.03.

Question: With G5C A12G C18A as the variant, how does the self-cleavage read?
Answer: Its self-cleavage is 0.02.

Question: For G5C C8U A16U U20A G33A, which self-cleavage is on record?
Answer: Its self-cleavage is 0.03.

Question: For G5C C8U A14G A41U, which self-cleavage is on record?
Answer: The self-cleavage was 0.08.

Question: For G5C A6U U43C, which self-cleavage is on record?
Answer: Its self-cleavage is 0.06.

Question: Which self-cleavage does the source give for G5A U20C G30C C37U here?
Answer: The self-cleavage was 0.04.

Question: With G5C A6C G27U C46A as the variant, how does the self-cleavage read?
Answer: Its self-cleavage is 0.19.

Question: For G5A U34G U38G, which self-cleavage is on record?
Answer: The self-cleavage was 0.04.

Question: Which self-cleavage does the source give for G5C A6U U20G here?
Answer: The self-cleavage was 0.04.

Question: Which self-cleavage does the source give for G5C A16C G19C G36C C46G here?
Answer: Its self-cleavage is 0.02.

Question: With G5A U28A C37U as the variant, how does the self-cleavage read?
Answer: Its self-cleavage is 0.12.

Question: With G5C C8G A25C U32G as the variant, how does the self-cleavage read?
Answer: Its self-cleavage is 0.04.

Question: For G5C A12U G22C C31A, which self-cleavage is on record?
Answer: Its self-cleavage is 0.02.

Question: Which self-cleavage does the source give for G5C A11C G19C A25C here?
Answer: Its self-cleavage is 0.02.

Question: Which self-cleavage does the source give for G5C A26U G33A here?
Answer: Its self-cleavage is 0.07.

Question: For G5A U20A G27C U28G, which self-cleavage is on record?
Answer: Its self-cleavage is 0.12.

Question: For G5C A14C C23A, which self-cleavage is on record?
Answer: Its self-cleavage is 0.02.

Question: Which self-cleavage does the source give for G5C A14C G19C C31A C37U C45U here?
Answer: Its self-cleavage is 0.01.

Question: With G5A U32A G36A as the variant, how does the self-cleavage read?
Answer: The self-cleavage was 0.09.

Question: For G5C C8G A14C G22U A26G A39U C42A, which self-cleavage is on record?
Answer: The self-cleavage was 0.02.

Question: Which self-cleavage does the source give for G5C A6U G29U C46G here?
Answer: Its self-cleavage is 0.08.

Question: For G5C A25C C31U C46U, which self-cleavage is on record?
Answer: The self-cleavage was 0.03.

Question: For G5C A6C A11U C13A A24U G30U C42A, which self-cleavage is on record?
Answer: Its self-cleavage is 0.01.

Question: For G5C C8G C15U A16U G19A G36A A41U, which self-cleavage is on record?
Answer: The self-cleavage was 0.05.

Question: For G5C A14U C15G, which self-cleavage is on record?
Answer: Its self-cleavage is 0.

Question: For G5C A16U U43A, which self-cleavage is on record?
Answer: The self-cleavage was 0.04.

Question: With G5A U34C A39G C46G as the variant, how does the self-cleavage read?
Answer: Its self-cleavage is 0.01.

Question: With G5A U20A G36C as the variant, how does the self-cleavage read?
Answer: Its self-cleavage is 0.03.

Question: With G5C A6G C8G G27U U28C C42U as the variant, how does the self-cleavage read?
Answer: Its self-cleavage is 0.04.

Question: With G5C A14C G30U U43A as the variant, how does the self-cleavage read?
Answer: Its self-cleavage is 0.02.

Question: For G5C A24C C37A C42U, which self-cleavage is on record?
Answer: Its self-cleavage is 0.04.

Question: Which self-cleavage does the source give for G5C A6G G17C A41C here?
Answer: The self-cleavage was 0.03.

Question: For G5C C8A A12C, which self-cleavage is on record?
Answer: The self-cleavage was 0.13.

Question: Which self-cleavage does the source give for G5C C8A A14U here?
Answer: Its self-cleavage is 0.03.

Question: Which self-cleavage does the source give for G5A U28C G30C A41G C46U here?
Answer: The self-cleavage was 0.04.

Question: With G5C C8G G30U G35U G44C as the variant, how does the self-cleavage read?
Answer: The self-cleavage was 0.13.

Question: Which self-cleavage does the source give for G5C C8A A39U here?
Answer: The self-cleavage was 0.12.

Question: With G5A U20A G22U G29A A39U as the variant, how does the self-cleavage read?
Answer: The self-cleavage was 0.03.

Question: For G5C C8A C15A G19C, which self-cleavage is on record?
Answer: The self-cleavage was 0.14.

Question: For G5C A12C U28C, which self-cleavage is on record?
Answer: Its self-cleavage is 0.03.

Question: Which self-cleavage does the source give for G5C A6G G30C U32G here?
Answer: Its self-cleavage is 0.

Question: With G5C A6G C18A G19A G36A as the variant, how does the self-cleavage read?
Answer: The self-cleavage was 0.07.

Question: For G5A U20C G21A U34A U43A, which self-cleavage is on record?
Answer: Its self-cleavage is 0.

Question: Which self-cleavage does the source give for G5A U28C U32A U34G U38G here?
Answer: The self-cleavage was 0.02.

Question: Which self-cleavage does the source give for G5C C8A U9G C13A A26U C46U here?
Answer: Its self-cleavage is 0.21.
